PubChem BioAssay AID504466 (National Center for Advancing Translational Sciences (NCATS), 2011)
The campaign covered roughly 330,000 compounds. About 4,200 (1.3%) were called active. Inconclusive means that the source gave no clear call. Such entries were picked first, then a sample of the others. Calls follow the shape of the dose curve; as a rule, active = well fitted activation curve with a large enough effect; inconclusive = small, poorly fitted or top-dose-only effect; inactive = no such curve, though single readings can be large or run the other way. Where the call is inconclusive, the potency comes from a doubtful curve fit.

Test: qHTS screen for small molecules that induce genotoxicity in human embryonic kidney (HEK293T) cells expressing luciferase-tagged ELG1; also: nearly all actives have a fitted effect of over 60% in size; as to activity change, positive = activation: % of control where 0% means no effect
Conditions: HEK293T ELG1-luciferase reporter, luminescence, 16 h; series mostly up to 46 µM; activity change, positive = activation: at the top concentration
How it was run: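 Quantitative HTS format in 1536-well plates. HEK293T ELG1-luciferase reporter cells receive test compound and are incubated 16 hr at 37 °C, 5% CO2; ONE-Glo added, 30 min room temperature, then luminescence read.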
Potency is read from the fitted curve at half-maximal effect; tags tell the direction and shape of the fitted curve.

Q: For `COc1ccc(NCc2nc3ccccc3n2CCOc2ccccc2)cc1`, which Potency is on record?
A: The Potency was active: 20.6 µM.

Q: With `CCCCN1C(C(=O)Nc2ncccn2)=C(O)c2ccccc2S1(=O)=O` as the compound, how does the “activity change, positive = activation” value read?
A: Its value is inactive: 1.93%.

Q: With `CCOc1ccc(-c2cnc3ccccc3n2)cc1` as the compound, how does the Potency read?
A: The Potency was active: 0.517 µM.

Q: For `N/C(=N\OC(=O)COc1ccccc1)c1ccncc1`, which Potency is on record?
A: The Potency was inconclusive: 10.3 µM [activator, partial curve].

Q: Which Potency does the source give for `Cc1cccc(C(=O)OCC(=O)N2CCCCCC2)c1C` here?
A: The Potency was inconclusive: 11.6 µM [activator, partial curve, poor fit].

Q: With `CCCn1c(N)c(C(=O)CSc2nc(C3CC3)n(-c3ccccc3)n2)c(=O)[nH]c1=O` as the compound, how does the Potency read?
A: The Potency was inconclusive: 29.1 µM [activator, partial curve, poor fit].

Q: Which “activity change, positive = activation” value does the source give for `O=C(CSc1ccccc1)Nc1ccc(Cl)c(S(=O)(=O)N2CCOCC2)c1` here?
A: Its value is inactive: -3.3%.

Q: Which Potency does the source give for `O=C(OC1CCCCC1)c1ccc2c(c1)C1C=CCC1C(C(=O)O)N2` (centres undefined) here?
A: The Potency was inconclusive: 14.6 µM [activator, partial curve].

Q: With `Cc1ccccc1NC(=O)OCc1ccccc1` as the compound, how does the Potency read?
A: The Potency was inconclusive: 23.1 µM [activator, partial curve, poor fit].

Q: For `O=C(Nc1ccc(S(=O)(=O)Nc2ncccn2)cc1)C1=COCCO1`, which Potency is on record?
A: Its Potency is inconclusive: 20.6 µM [activator, partial curve, poor fit].

Q: Which Potency does the source give for `CCN(CC)CCCC1(CN)OCCc2ccccc21` (centres undefined) here?
A: The Potency was inconclusive: 20.6 µM [activator, partial curve].

Q: With `CCn1ncc(C(=O)Nc2cccc(Cl)c2)c1C` as the compound, how does the Potency read?
A: Its Potency is inconclusive: 18.4 µM [activator, partial curve].

Q: For `O=C(/C=C/c1ccccc1Cl)NCc1cccs1`, which Potency is on record?
A: The Potency was inconclusive: 18.4 µM [activator, partial curve, poor fit].

Q: Which Potency does the source give for `CCn1ncc([N+](=O)[O-])c1C(=O)n1nc(C)cc1C` here?
A: Its Potency is inconclusive: 25.9 µM [activator, partial curve, poor fit].

Q: For `Cc1ccc(-c2nc3cc(NC(=O)C(C)C)ccc3o2)cc1`, which Potency is on record?
A: The Potency was inconclusive: 0.461 µM [activator, full curve, poor fit].

Q: With `CCOC(=O)c1sc(NC(=O)c2ccc(S(=O)(=O)N3CCCCCC3)cc2)nc1-c1ccccc1` as the compound, how does the “activity change, positive = activation” value read?
A: The value was inactive: -10.3%.

Q: Which Potency does the source give for `Cc1ccc(/C(N)=N/OC(=O)c2cccc(F)c2)cc1` here?
A: Its Potency is inconclusive: 16.4 µM [activator, partial curve, poor fit].

Q: For `Cn1c(=O)oc2cc(S(=O)(=O)N3CCC(C(=O)NCc4ccc(F)cc4)CC3)ccc21`, which Potency is on record?
A: Its Potency is inconclusive: 29.1 µM [activator, partial curve, poor fit].

Q: Which “activity change, positive = activation” value does the source give for `COc1ccc(CCC(=O)NCCS(=O)(=O)N2CCN(c3ccc(F)cc3)CC2)cc1` here?
A: The value was inactive: -8.33%.
